Assay results: the supplement of paper PMC10126150
Sequences with one replicate were seen in a single cluster, so their values are uncertain.

System: ATP
Test: switch fluorescence ratio, 500 uM ATP over buffer (Cy3 cluster intensity, sum of 5 cycles each) (fold (ratio)); higher = stronger signal-on switching upon ATP binding; sequences stand for … in TCGTCGGCAGCGTCAGATGTGTATAAGAGACAGTTTTTTTTTTTTTTTTTTTTTTTTT…TC
Conditions: aptamer strand: ATP DNA aptamer (quencher-CACCTGGGGGAGTATTGCGGAGGAAGG + anchor), 100 nM annealed; ATP concentration: 500 uM; one replicate
How it was run: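 Per cluster, summed Cy3 intensity from the target cycles was divided by that from the buffer cycles to give the fluorescence ratio, then averaged per switch-domain sequence. Clusters outside 100-1000 RFU were excluded. The Cy3-labelled switching-strand clusters, on a modified Illumina MiSeq flow-cell, were annealed to 100 nM quencher-labelled ATP aptamer and imaged in selection buffer, then after 15 min with 500 uM ATP at 22 °C, for five cycles with NaOH stripping and re-annealing between them.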
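Also: ATP exposure 15 min at 22 °C before imaging.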

Row | Sequence | switch fluorescence ratio
1 | TTTATGTGAA | 1.02
2 | TTTATTATC | 1.02
3 | TTTATTGC | 1.02
4 | TTTCAAGATC | 0.988
5 | TTTCAAGCGT | 1.04
6 | TTTCAATCAG | 0.986
7 | TTTCAATCTA | 1.04
8 | TTTCAGCTCG | 1.01
9 | TTTCATACAC | 1.06
10 | TTTCATAG | 1
11 | TTTCATGCCA | 1
12 | TTTCATTCGC | 1.61
13 | TTTCCAGAAA | 0.992
14 | TTTCCAGAGG | 1.25
15 | TTTCCAGATG | 1.06
16 | TTTCCATGAA | 0.973
17 | TTTCCCAACT | 1.18
18 | TTTCCCGCCC | 3.89
19 | TTTCCGAGAA | 1.04
20 | TTTCCGCCTG | 1.15
21 | TTTCCGCGGT | 1.37
22 | TTTCCGCTCG | 1.08
23 | TTTCCGGGTT | 1.01
24 | TTTCGAACGA | 1.05
25 | TTTCGACAAC | 1.13
26 | TTTCGACGG | 1.04

Row | Sequence | switch fluorescence ratio
27 | TTTCGCGCGT | 1.25
28 | TTTCGCGTGC | 1.11
29 | TTTCGGAAGA | 1.01
30 | TTTCGGGAAC | 1.05
31 | TTTCGGTAC | 1.11
32 | TTTCGGTAGG | 0.989
33 | TTTCGTAGGC | 1.02
34 | TTTCGTCTAA | 0.965
35 | TTTCGTGGGC | 1.35
36 | TTTCTATAGT | 1.01
37 | TTTCTATCT | 1.01
38 | TTTCTATTA | 1.03
39 | TTTCTATTTC | 1.07
40 | TTTCTCAAAC | 1.01
41 | TTTCTGGTGT | 1.04
42 | TTTCTGTTAT | 0.967
43 | TTTCTTAAGG | 0.974
44 | TTTCTTGCTC | 1.39
45 | TTTGAACCAC | 1.04
46 | TTTGAAGATT | 1
47 | TTTGAAGTCG | 1.02
48 | TTTGAATCTG | 1.01
49 | TTTGACGATA | 1.02
50 | TTTGAGCACA | 1.05
51 | TTTGAGGTT | 0.975
52 | TTTGAGTTGA | 0.989

Row | Sequence | switch fluorescence ratio
53 | TTTGATGGTC | 1.02
54 | TTTGATTATC | 0.972
55 | TTTGATTTAT | 1
56 | TTTGCACCAC | 1.07
57 | TTTGCACCTT | 1.09
58 | TTTGCCAAGT | 1.01
59 | TTTGCCCTCC | 1.23
60 | TTTGCCTCTG | 1
61 | TTTGCCTCTT | 0.977
62 | TTTGCGGGCC | 0.96
63 | TTTGCTAATG | 1
64 | TTTGGAAGAC | 0.988
65 | TTTGGAATGA | 1.03
66 | TTTGGAGCC | 1.07
67 | TTTGGATCGA | 1.3
68 | TTTGGATTCG | 1.03
69 | TTTGGCAGAT | 1.05
70 | TTTGGCGTCG | 1.07
71 | TTTGGCTGAC | 1.13
72 | TTTGGGCCT | 1.12
73 | TTTGGGCTTT | 0.992
74 | TTTGGGTGCC | 0.98
75 | TTTGGTACG | 0.989
76 | TTTGGTCACC | 1.01
77 | TTTGGTCTCG | 0.996
78 | TTTGGTGAAA | 0.974

Row | Sequence | switch fluorescence ratio
79 | TTTGTAACGT | 0.992
80 | TTTGTAGGG | 0.967
81 | TTTGTATTTG | 0.974
82 | TTTGTCAGT | 1.04
83 | TTTGTCATCA | 1.01
84 | TTTGTGGTGA | 0.961
85 | TTTGTGTACG | 1.03
86 | TTTGTTAGTA | 0.991
87 | TTTGTTAGTC | 0.995
88 | TTTTAATCAC | 1
89 | TTTTAATTAC | 0.968
90 | TTTTAATTGC | 1.02
91 | TTTTACACAA | 1.05
92 | TTTTACCCCA | 1.07
93 | TTTTACCTC | 1.02
94 | TTTTACCTGA | 1.08
95 | TTTTAGCCAC | 1.03
96 | TTTTAGCCGC | 1.07
97 | TTTTAGCCGT | 1.07
98 | TTTTATAGCC | 0.994
99 | TTTTATGAAT | 0.976
100 | TTTTATGCA | 0.998
101 | TTTTCAATAT | 1.9
